The data set deals with the molecule itself. As to the kind of experiment: SEC. (In general: SEC sorts molecules by how far they enter the pores of the column.)

B1: C-terminal tetramerization domain of human p53 ([…]) (domain or fragment)
chain: not shown
For B1, the stoichiometry N (usually the number of molecules, sites or subunits per partner or assembly) came out at 4.
